Assay results from the antibiotic and cytotoxicity screens of Wong et al. (2023).
This is one part of the list.

tested on: S. aureus RN4220; assay: growth inhibition call (relative growth <= 0.2); settings: 50 µM

Growth inhibition call, inactive:
CCCNC(=O)N(C)C[C@@H]1Oc2ncc(-c3ccc(C(=O)N(C)C)cc3)cc2C(=O)N([C@H](C)CO)C[C@@H]1C
C[C@H]1CN([C@@H](C)CO)C(=O)Cc2cc(NS(C)(=O)=O)ccc2O[C@@H]1CN(C)S(C)(=O)=O
COc1cccc(NC(=O)N(C)C[C@@H]2OCc3ccccc3-c3c(n(C)c4ccccc34)C(=O)N([C@H](C)CO)C[C@H]2C)c1
COCCOC(=O)N1C(=O)[C@@]2(c3cc(C#Cc4ccc(OC)cc4)ccc31)[C@H](c1ccc(O)cc1)N1[C@H](c3ccccc3)[C@H](c3ccccc3)OC(=O)[C@H]1[C@@H]2C(N)=O
COc1cccc(S(=O)(=O)N(C)C[C@H]2Oc3cc(C#CCN(C)C)ccc3S(=O)(=O)N([C@H](C)CO)C[C@@H]2C)c1
O=C(O)C(O)C(O)C(=O)O.OCc1cccnc1 (centres undefined)
COc1cc(N2CC[C@H]3O[C@@H](C(=O)NCCN(C)C)C[C@H]32)ncn1

Growth inhibition call, active:
Cc1noc(C)c1NC(=O)Nc1ccc2c(c1)C(=O)N([C@H](C)CO)C[C@H](C)[C@H](CN(C)C(=O)Nc1ccc(C(F)(F)F)cc1)O2
CS(=O)(=O)c1ccc(C(O)C(CF)NC(=O)C(Cl)Cl)cc1 (centres undefined)
